# Test results published in the antibiotic and cytotoxicity screens of Wong et al. (2023).
# The list shows a part of the results.
# Test system: HSkMC (human skeletal muscle cells)
# Assay: cytotoxicity call (relative viability < 0.9)
# Settings: 10 µM
row,Structure (SMILES),cytotoxicity call
1,COCCNC(=O)C[C@H]1CC[C@@H]2[C@H](COC[C@H](O)CN2C(=O)Nc2ccc3c(c2)OCO3)O1,inactive
2,C[C@@H]1CN([C@H](C)CO)C(=O)c2cccc(NC(=O)CCCCCC(=O)Nc3ccccc3N)c2O[C@H]1CN(C)C(=O)Nc1ccc(C(F)(F)F)cc1,inactive
3,COc1ccc2cc(-c3cc(-c4cc(Cl)cc(Cl)c4)nn3[C@@H](C)c3ccc(C(=O)NCCC(=O)O)cc3)ccc2c1,active
4,C[C@@H]1CN([C@@H](C)CO)C(=O)c2cc(NC(=O)Cc3ccccc3)ccc2O[C@H]1CN(C)S(C)(=O)=O,inactive
5,CC(C)NC(=O)N[C@@H]1C=C[C@H](CC(=O)NCCCN(C)C)O[C@H]1CO,inactive
6,O=C(NOC[C@H](O)CO)c1cc(Br)c(F)c(F)c1Nc1ccc(I)cc1F,inactive
7,c1ccc2c([C@@H]3CCCN3)cccc2c1,inactive
8,COc1ccc(S(=O)(=O)Nc2cccc3c2O[C@H](CN(C)S(=O)(=O)c2c(C)noc2C)[C@@H](C)CN([C@H](C)CO)C3=O)cc1,inactive
9,Nc1nc(N2CCC[C@@H](Cn3cc(CO)nn3)C2)c2c[nH]nc2n1,inactive
10,C[C@H]1CN([C@@H](C)CO)C(=O)Cc2cc(NS(=O)(=O)c3cn(C)cn3)ccc2O[C@@H]1CN(C)S(=O)(=O)c1cccs1,inactive
